Test results: the supplement of paper PMC4967469
IC50 is the fitted dose that halves viability relative to control wells, and lower means more sensitive; where the fit passes the top or lowest dose, that dose stands as a limit. AUC is the area under the same curve over the 256-fold range up to the top dose, as a fraction; the more sensitive the line, the further below 1. For some of these results: The top dose, if marked as inferred, comes from the curve model; the source does not state it. For some of these results: Where an entry number is given, a second screen of the drug exists; the two often differ.

What was measured:
Test in all cases: Viability of human cancer cell lines after 72 h of drug (GDSC screen)
[1] = compound: Fc1cc(-c2ccnc(Nc3ccc(-n4cnc(N5CCOCC5)n4)cc3)n2)cc(N2CCOCC2)c1 [JNK-9L]; conditions: top dose 5.12 µM; top dose inferred
Procedure: (§1)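 Human cancer cell lines in 384-well plates, medium with 10% serum, drug for 72 h over a 256-fold dose range (nine 2-fold or five 4-fold steps up to the top dose). Adherent lines were fixed and stained with the nucleic acid dye Syto60, suspension lines read with resazurin; signal relative to control wells, capped at 0 and 100%. One two-parameter sigmoid per drug and line, fitted in a mixed model over all curves with the slope shared within a line.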

[2] = compound: C#Cc1cccc(Nc2ncnc3cc(OC)c(OCCCCCCC(=O)NO)cc23)c1 [CUDC-101]; conditions: top dose 5.12 µM; top dose inferred
Procedure: as §1

[3] = compound: O=c1[nH]cc(F)c(=O)[nH]1 [5-Fluorouracil]; conditions: top dose 32 µM; top dose inferred
Procedure: as §1

[4] = compound: COc1cc(F)c(F)c(Nc2ccc(I)cc2F)c1NS(=O)(=O)C1(C[C@H](O)CO)CC1 [RDEA119]; conditions: top dose 5 µM, top dose inferred
Procedure: as §1

[5] = compound: NCC(=O)Nc1ccc(-n2nc(C(F)(F)F)cc2-c2ccc3c(ccc4ccccc43)c2)cc1 [OSU-03012]; conditions: top dose 16 µM; top dose inferred
Procedure: as §1

[6] = compound: OC[C@H](Cc1ccccc1)Nc1nc(Oc2ccc3c(c2)CCC3)nc2c1ncn2Cc1ccc(-c2ccccc2)cc1 [QS11]; conditions: top dose 10.24 µM
Procedure: as §1

[7] = compound: CC(C)(C)c1cc(NC(=O)Nc2ccc(-c3cn4c(n3)sc3cc(OCCN5CCOCC5)ccc34)cc2)no1 [AC220]; conditions: top dose 1.024 µM; top dose inferred
Procedure: as §1

Cell Line | AUC [1] | IC50 [1] [nM] | AUC [2] | IC50 [2] [nM] | AUC [3] | IC50 [3] [nM] | AUC ([4]; screen: GDSC drug entry 1014) | IC50 ([4]; screen: GDSC drug entry 1014) [nM] | AUC ([4]; screen: GDSC drug entry 1526) | IC50 ([4]; screen: GDSC drug entry 1526) [nM] | AUC [5] | IC50 [5] [nM] | AUC [6] | IC50 [6] [nM] | AUC [7] | IC50 [7] [nM]
LOUCY (T-cell lymphoblastic leukaemia, suspension) | 0.581 | 510 | 0.228 | 62.9 | 0.807 | 12900 | 0.972 | > 5000 | 0.958 | > 5000 | 0.862 | 9780 | 0.988 | > 10200 | 0.903 | 907
LOXIMVI (melanoma, semi-adherent) | 0.595 | 565 | 0.589 | 545 | 0.903 | > 32000 | 0.509 | 330 | 0.551 | 424 | 0.769 | 5390 | 0.923 | > 10200 | 0.99 | > 1020
LP-1 (myeloma, suspension) | 0.568 | 473 | 0.487 | 297 | 0.905 | 30000 | 0.991 | > 5000 | 0.991 | > 5000 | 0.803 | 6390 | 0.928 | > 10200 | 0.916 | > 1020
LS-123 (large intestine, adherent) | 0.732 | 1860 | 0.631 | 828 | 0.96 | > 32000 |  |  | 0.841 | > 5000 | 0.539 | 1320 | 0.809 | 7680 | 0.972 | > 1020
LS-180 (large intestine, adherent) | 0.572 | 518 | 0.593 | 600 | 0.881 | > 32000 | 0.651 | 872 | 0.715 | 1400 | 0.662 | 3030 | 0.823 | 7170 | 0.979 | > 1020
LS-513 (large intestine, adherent) | 0.689 | 1110 | 0.735 | 1550 | 0.505 | 2060 | 0.427 | 196 | 0.611 | 641 | 0.902 | > 16000 | 0.977 | > 10200 | 0.977 | > 1020
LS-1034 (large intestine, adherent) | 0.705 | 1300 | 0.66 | 934 | 0.601 | 3890 | 0.724 | 1450 | 0.543 | 415 | 0.578 | 1670 | 0.922 | > 10200 | 0.984 | > 1020
LU-65 (large cell lung carcinoma, suspension) | 0.764 | 2180 | 0.609 | 677 | 0.745 | 11600 | 0.987 | > 5000 | 0.98 | > 5000 | 0.847 | 15100 | 0.934 | > 10200 | 0.978 | > 1020
LU-134-A (small cell lung carcinoma, suspension) | 0.567 | 495 | 0.484 | 289 | 0.834 | 22800 | 0.977 | > 5000 | 0.974 | > 5000 | 0.957 | > 16000 | 0.962 | > 10200 | 0.953 | > 1020
